Some of the results follow.
B1: PhoQ; a variant is named by its letters at X, in order, P23837 (parent)
chain: MKKLLRLFFPLSLRVRFLLATAAVVLVLSLAYGMVALIGYSVSFDKTTFRLLRGESNLFYTLAKWENNKLHVELPENIDKQSPTMTLIYDENGQLLWAQRDVPWLMKMIQPDWLKSNGFHEIEADVNDTSLLLSGDHSIQQQLQEVREDDDDAEMTHSVAVNVYPATSRMPKLTIVVVDTIPVELKSSYMVWSWFIYVLSANLLLVIPLLWVAAWWSLRPIEALAKEVRELEEHNRELLNPATTRELTSLVRNLNRLLKSERERYDKYRTTLTDLTHSLKTPLXXLQXXLRSLRSEKMSVSDAEPVMLEQISRISQQIGYYLHRASMRGGTLLSRELHPVAPLLDNLTSALNKVYQRKGVNISLDISPEISFVGEQNDFVEVMGNVLDNACKYCLEFVEISARQTDEHLYIVVEDDGPGIPLSKREVIFDRGQRVDTLRPGQGVGLAVAREITEQYEGKIVAGESMLGGARMEVIFGRQHSAPKDE

Variants of: B1
Assay: enrichment ratio after two sorts for PhoP signalling (ratio (wild type AVST 3.29)); higher = more functional
Details: with PhoP (E. coli)

Row | Variant | enrichment ratio
1 | RVIF | ≤ 0.25
2 | SIRK | ≤ 0.25
3 | NRRE | ≤ 0.25
4 | QMWI | ≤ 0.25
5 | LRPI | ≤ 0.25
6 | DPTL | ≤ 0.25
7 | WRQI | ≤ 0.25
8 | MMQG | ≤ 0.25
9 | KTSL | ≤ 0.25
10 | SDVR | ≤ 0.25
11 | PETS | ≤ 0.25
12 | PIHQ | ≤ 0.25
13 | KLEK | ≤ 0.25
14 | GARE | ≤ 0.25
15 | KLQL | ≤ 0.25
16 | HSLA | ≤ 0.25
17 | YWFT | ≤ 0.25
18 | ARPT | ≤ 0.25
19 | PMPV | ≤ 0.25
20 | RRDI | ≤ 0.25
21 | VLDL | ≤ 0.25
22 | PQGL | ≤ 0.25
23 | WPAK | ≤ 0.25
24 | IDEM | ≤ 0.25
25 | YVRT | ≤ 0.25

Row | Variant | enrichment ratio
26 | LEQP | ≤ 0.25
27 | PDLT | ≤ 0.25
28 | RHDH | ≤ 0.25
29 | RWWC | ≤ 0.25
30 | TECC | 30
31 | AYKM | ≤ 0.25
32 | IHMQ | ≤ 0.25
33 | HYMI | ≤ 0.25
34 | MYNG | ≤ 0.25
35 | RLIC | ≤ 0.25
36 | KFSA | ≤ 0.25
37 | IHDM | ≤ 0.25
38 | DNLL | ≤ 0.25
39 | RSEE | ≤ 0.25
40 | FKFL | ≤ 0.25
41 | NICR | ≤ 0.25
42 | ADGC | ≤ 0.25
43 | DIQW | ≤ 0.25
44 | LACA | ≤ 0.25
45 | NYHE | ≤ 0.25
46 | IVKT | ≤ 0.25
47 | LQLW | ≤ 0.25
48 | LTNY | ≤ 0.25
49 | GYFF | ≤ 0.25
50 | FQGE | ≤ 0.25

Row | Variant | enrichment ratio
51 | RSHQ | ≤ 0.25
52 | VPKT | ≤ 0.25
53 | MCVF | ≤ 0.25
54 | RCGS | ≤ 0.25
55 | VENA | ≤ 0.25
56 | APYY | ≤ 0.25
57 | TLIH | ≤ 0.25
58 | DPKP | ≤ 0.25
59 | NWYR | ≤ 0.25
60 | RING | ≤ 0.25
61 | HQWI | ≤ 0.25
62 | DKFK | ≤ 0.25
63 | STKW | ≤ 0.25
64 | PVGT | ≤ 0.25
65 | VPPL | ≤ 0.25
66 | PRIP | ≤ 0.25
67 | SCLA | 11.8
68 | ARAA | ≤ 0.25
69 | AGIN | ≤ 0.25
70 | GILH | 5.92
71 | QFHL | ≤ 0.25
72 | STKT | ≤ 0.25
73 | LESN | ≤ 0.25
74 | WVCI | ≤ 0.25
75 | KPHN | ≤ 0.25

Row | Variant | enrichment ratio
76 | ADVL | 3.21
77 | LSQH | ≤ 0.25
78 | AYRA | ≤ 0.25
79 | TFNL | 0.993
80 | IPDV | ≤ 0.25
81 | WQWF | ≤ 0.25
82 | ARNM | ≤ 0.25
83 | WYTE | ≤ 0.25
84 | TADP | ≤ 0.25
85 | WGIF | ≤ 0.25
86 | ALNP | ≤ 0.25
87 | RNRF | ≤ 0.25
88 | KRPW | ≤ 0.25
89 | CHYI | ≤ 0.25
90 | NRML | ≤ 0.25
91 | TNNY | 5.03
92 | IFLA | ≤ 0.25
93 | YWCA | ≤ 0.25
94 | NKMW | ≤ 0.25
95 | WKVI | ≤ 0.25
96 | MHED | ≤ 0.25
97 | PFQS | ≤ 0.25
98 | RQYM | ≤ 0.25
99 | EESN | ≤ 0.25
100 | EGVG | ≤ 0.25

Row | Variant | enrichment ratio
101 | MWGH | ≤ 0.25
102 | IFCH | ≤ 0.25
103 | KMFC | ≤ 0.25
104 | ICYI | ≤ 0.25
105 | DVAI | ≤ 0.25
106 | IRWF | ≤ 0.25
107 | IHIR | ≤ 0.25
108 | WYKI | ≤ 0.25
109 | RHRV | ≤ 0.25
110 | DACV | ≤ 0.25
111 | QCGQ | 0.634
112 | KSPC | ≤ 0.25
113 | HANF | ≤ 0.25
114 | DRMC | ≤ 0.25
115 | GFWM | ≤ 0.25
116 | GNAL | 7.59
117 | SRID | ≤ 0.25
118 | PTYS | ≤ 0.25
119 | RQPQ | ≤ 0.25
120 | FFSW | ≤ 0.25
121 | SFLW | ≤ 0.25
122 | YKIP | ≤ 0.25
123 | NKRS | ≤ 0.25
124 | TGGF | 15
125 | GHPG | ≤ 0.25

Row | Variant | enrichment ratio
126 | FDTN | ≤ 0.25
127 | YQWH | ≤ 0.25
128 | GFMS | ≤ 0.25
129 | YGTW | ≤ 0.25
130 | FQPQ | ≤ 0.25
131 | MVCM | 1.44
132 | KVVH | ≤ 0.25
133 | IGGG | ≤ 0.25
134 | QLEY | ≤ 0.25
135 | MWEF | ≤ 0.25
136 | RTIA | ≤ 0.25
137 | WLSI | ≤ 0.25
138 | WCIS | ≤ 0.25
139 | IFNT | ≤ 0.25
140 | TDDD | ≤ 0.25
141 | WHDM | ≤ 0.25
142 | SNVG | 3.21
143 | SRRG | ≤ 0.25
144 | HDVF | ≤ 0.25
145 | RNPV | ≤ 0.25
146 | RGRV | ≤ 0.25
147 | MMNQ | ≤ 0.25
148 | YYRG | ≤ 0.25
149 | HGWM | ≤ 0.25
150 | VMTY | ≤ 0.25

Row | Variant | enrichment ratio
151 | LTIR | ≤ 0.25
152 | YEQH | ≤ 0.25
153 | RNGT | ≤ 0.25
154 | PLFE | ≤ 0.25
155 | TKGG | ≤ 0.25
156 | WHKS | ≤ 0.25
157 | HDIE | ≤ 0.25
158 | VMWQ | ≤ 0.25
159 | MSTW | ≤ 0.25
160 | FDNG | ≤ 0.25
161 | PSHN | ≤ 0.25
162 | GYNG | ≤ 0.25
163 | RFYE | ≤ 0.25
164 | QTAR | ≤ 0.25
165 | DGDN | ≤ 0.25
166 | LIYI | ≤ 0.25
167 | FSQV | ≤ 0.25
168 | KCTS | ≤ 0.25
169 | PQWH | ≤ 0.25
170 | QYNH | ≤ 0.25
171 | GGCM | 9.15
172 | EFLF | ≤ 0.25
173 | MAAE | ≤ 0.25
174 | FVSN | ≤ 0.25
175 | VRCY | ≤ 0.25

Row | Variant | enrichment ratio
176 | NDRL | ≤ 0.25
177 | MIMI | 1.14
178 | TYSP | 0.441
179 | HCYL | ≤ 0.25
180 | YFKD | ≤ 0.25
181 | HQAY | ≤ 0.25
182 | ACAD | ≤ 0.25
183 | HLSH | ≤ 0.25
184 | DNRA | ≤ 0.25
185 | SITS | 11.6
186 | PGGR | ≤ 0.25
187 | RMMN | ≤ 0.25
188 | SPDS | ≤ 0.25
189 | VTMW | ≤ 0.25
190 | EVAR | ≤ 0.25
191 | YSRC | ≤ 0.25
192 | GEFN | ≤ 0.25
193 | LEYM | ≤ 0.25
194 | WHSN | ≤ 0.25
195 | HWIQ | ≤ 0.25
